Measurements published in paper PMC6919601, “Identification of Plasmodium dipeptidyl aminopeptidase allosteric inhibitors by high throughput screening” (PLoS ONE, 2019).
“And” between values parts separate entries of the source, which are not always exact repeats. Identical values can stand only once. In all, about 110,000 compounds went through this assay and about 230 (0.21%) showed an effect of 50% or more. This is one part of the list.

Each molecule was assayed against DPAP1 (Plasmodium falciparum, UniProt Q8IIJ9) (assay: primary screen, percent inhibition; read by cleavage of a fluorogenic dipeptide substrate; higher = more effect of the substance).
Chain of DPAP1 (Q8IIJ9 whole entry, looked up): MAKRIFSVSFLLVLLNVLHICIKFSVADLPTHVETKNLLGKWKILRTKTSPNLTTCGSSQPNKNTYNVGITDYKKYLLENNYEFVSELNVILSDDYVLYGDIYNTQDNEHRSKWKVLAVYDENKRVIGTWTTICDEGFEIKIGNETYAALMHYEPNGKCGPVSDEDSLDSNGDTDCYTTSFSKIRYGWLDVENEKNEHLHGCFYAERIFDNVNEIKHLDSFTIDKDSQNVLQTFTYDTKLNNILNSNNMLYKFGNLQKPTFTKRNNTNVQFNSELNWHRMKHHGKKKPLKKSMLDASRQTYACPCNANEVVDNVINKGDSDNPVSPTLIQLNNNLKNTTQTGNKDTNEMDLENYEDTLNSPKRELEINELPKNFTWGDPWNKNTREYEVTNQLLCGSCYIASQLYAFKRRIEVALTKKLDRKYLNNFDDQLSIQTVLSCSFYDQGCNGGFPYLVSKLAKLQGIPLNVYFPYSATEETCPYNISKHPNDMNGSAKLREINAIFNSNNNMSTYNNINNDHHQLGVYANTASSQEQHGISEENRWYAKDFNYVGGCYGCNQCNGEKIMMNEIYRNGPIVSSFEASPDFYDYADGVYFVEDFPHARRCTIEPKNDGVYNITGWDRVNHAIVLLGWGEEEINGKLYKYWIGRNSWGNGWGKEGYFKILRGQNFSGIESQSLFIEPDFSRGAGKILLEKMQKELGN
Set-up: species or system P. falciparum D10 trophozoite lysates; single well
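Further: 30 min substrate incubation versus DMSO and 10 µM JCP410 controls.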

Point of comparison: `COc1ccc(/C=C(\C#N)c2nc3cccnc3[nH]2)cc1OC`, “% Inhibition @ 10 uM” value -0.988%. Against it:
- CCOc1ccc(C2C(C(=O)OC)=CN(C)C=C2C(=O)OC)cc1OC — lower, -1.48%
- CS(=O)(=O)N(CC(=O)Nc1cc(Cl)ccc1Cl)C1CCCCC1 — lower, -1.51%
- CC(NC(=S)c1ccncc1)c1ccccc1 (stereo not shown) — higher, -0.744%
- CCCCN1C(=O)C(NC(=O)c2ccccc2OC)(C(F)(F)F)C(C(=O)OC)=C1C (stereo not shown) — lower, -4.78%
- CCNC(=O)C1CCCc2c1[nH]c1ccc(Cl)cc21 (stereo not shown) — higher, 0.345%
- Cc1ccc(NC(=O)C2CC(=O)N(c3ccc(OCc4ccccc4)cc3)C2)cc1C (stereo not shown) — lower, -8.29%
- CCOC(=O)c1cc(C)sc1NC(=O)c1ccc(C)cc1 — lower, -5.9%
- CCC(C)c1ccccc1OCC(=O)Nc1ccc(C(C)=O)cc1 (stereo not shown) — higher, 6.69%
- Nc1nnc(-c2cc(-c3ccc(Cl)cc3)on2)o1 — lower, -5.41%
- c1ccc2sc(CCCCc3nc4ccccc4s3)nc2c1 — lower, -11.6%
- COc1ccc(Br)cc1CNC(=O)CCC(=O)N1Cc2ccccc2Oc2ncccc21 — higher, 5.98%
- COc1ccc2nc(NC(=O)CCN3C(=O)c4ccccc4C3=O)sc2c1 — higher, 1.82%
- O=C(CCCN1C(=O)C(c2ccccc2)Oc2cccnc21)NC1CCCCCC1 (stereo not shown) — lower, -1.81%
- COc1ccc(NC(=O)c2c(C(=O)O)cccc2[N+](=O)[O-])cc1 — lower, -1.29%
- CC(C)Cn1cc(C(=O)NCCCN2CCCC2=O)c2c3ccccc3n(C)c2c1=O — lower, -6.45%
- Cc1nc2c(N)c(Cl)c(Cl)c(N)c2[nH]1 — higher, 1.7%
- O=[N+]([O-])c1ccc(S(=O)(=O)N2CCN(c3ccccc3)CC2)cc1 — lower, -5.32%
- O=C(NCc1ccc(F)cc1)N1CCN2CCCCC2C1 (stereo not shown) — lower, -6.33%
- COc1ccc(/C=C2\C(=O)c3ccccc3S2(=O)=O)cc1 — lower, -1.06%
- FC(F)(F)c1nc2ccccc2c2nc3ccccc3n12 — lower, -1.47%
- C=CCNc1nc(-c2sc(N)nc2C)cs1 — higher, 5.31%
- COc1cc(NS(=O)(=O)c2ccc(Cl)cc2)c(OC)cc1Cl — higher, 3.16%
- O=C(NCCc1ccccc1Cl)C1CC(=O)N(C2CCCCC2)C1 (stereo not shown) — lower, -3.14%
- COc1ccccc1C(=O)Nc1cccc(C(=O)O)c1C — lower, -3.41%
- CCO/C=C1/C(=O)N(c2ccc(C)cc2)C(=O)c2cc(OC)ccc21 — higher, 1.34%
- CCN1C(=O)NC2C1N(C)C(=O)N2C (stereo not shown) — lower, -3.03%
- O=C(Cc1ccccc1)Nc1ccc(C(=O)NCC2CCCO2)cc1 (stereo not shown) — lower, -3.33%
- Cc1cc(Oc2nc3ccccn3c(=O)c2/C=C(\C#N)c2nc3ccccc3[nH]2)ccc1Cl — higher, 92.2%
- CCOC(=O)N1CCN(Cc2ccc(F)c(Br)c2)CC1 — higher, 1.08%
- O=C1C(Nc2ccccc2)=C(NS(=O)(=O)c2ccccc2)C(=O)c2ccccc21 — lower, -4.24%
- Cc1ccc(OCCCn2c(CO)nc3ccccc32)cc1 — higher, 1.61%
- COc1cccc(-c2cc(C(F)(F)F)n3ncc(C(=O)N(C)CCc4ccccn4)c3n2)c1 — lower, -4.62%
- COc1ccc(OCC(=O)Nc2ccc(Br)c(Cl)c2)cc1 — lower, -2.99%
- CCOC(=O)N1CCN(C2CCN(C)CC2)CC1 — higher, 3.19%
- CN1C(=O)c2ccccc2C(C(=O)NCc2ccccc2)C1c1cccs1 (stereo not shown) — higher, 9.29%
- Cc1ccccc1CN1CCCCC1CO (stereo not shown) — higher, 1.91%
- CNS(=O)(=O)c1cn(CC(=O)N2CCc3ccccc3C2)cc1S(=O)(=O)NC — higher, 1.23%
- CCC(Oc1ccc2c(c1)C(=O)CC(C)(C)O2)C(=O)NCCN1CCCCCC1 (stereo not shown) — lower, -1.34%
- COCC1=Nc2ncnn2C(c2ccco2)/C1=C(/O)OC (stereo not shown) — higher, 0.627%
- Cc1cc2ccccc2c(=O)n1CC(=O)NCCC1=CCCCC1 — higher, 1.91%
- O=S(=O)(c1ccc2oc3ccc(S(=O)(=O)N4CCCCC4)cc3c2c1)N1CCCCC1 — lower, -1.47%
- N#CC1(NC(=O)[C@H](CC2CCCCC2)N[C@@H](c2cccc(-c3ccncc3)c2)C(F)(F)F)CC1 — higher, 0.079%
- O=C(Cn1nc(C(F)(F)F)cc1C1CC1)N1CCc2ccccc21 — higher, 3.72%
- COc1ccc(C2CC(c3ccccc3)=Nc3ccccc3S2)cc1OC (stereo not shown) — lower, -5.48%
- O=C(CNS(=O)(=O)c1ccc(Cl)cc1)N1CCCCC1 — higher, 10.2%
- COc1ccc(CCNC(=O)c2nc3ncccn3n2)cc1OC — higher, 0.0289%
- CNC(C)Cc1c2c(cc3c1CCC3)CCC2 (stereo not shown) — lower, -5.79%
- COc1ccc(/N=C2\S/C(=C3\C(=O)Nc4ccccc43)C(=O)N2c2ccc(OC)cc2)cc1 — higher, 2.69%
- CN(C)CCCN1C(=O)C(O)=C(C(=O)c2ccc(F)cc2)C1c1ccccn1 (stereo not shown) — higher, 6.71%
- O=C(NC12CC3CC(CC(C3)C1)C2)N1CCOCC1 — lower, -2.2%
- Cc1cc(NC(=O)CN2C(=O)c3ccccc3S2(=O)=O)ccc1Br — lower, -2.75%
- COc1ccc(C)cc1NC(=O)C(C)N(c1ccccc1)S(C)(=O)=O (stereo not shown) — lower, -2.8%
- O=C(c1cc(-c2ccc3c(c2)OCO3)on1)N1CCOCC1 — higher, -0.591%
- Nc1nc(NC(=O)c2ccc(F)cc2)nn1-c1ccccc1 — lower, -2.65%
- Cc1ccc(S(=O)(=O)NC(C)C(=O)Nc2ccc(Cl)c(C(F)(F)F)c2)cc1 (stereo not shown) — lower, -3.87%
- Cc1ccc(-c2csc(N)n2)c(C)c1 — lower, -4.7%
- CCOc1ccc(CNC(=O)C(C)n2ccc3cc(S(=O)(=O)N4CCCC4)ccc32)cc1 (stereo not shown) — higher, 4.98%
- CCc1cc(=O)oc2c(C)c3c(cc12)CN(Cc1ccc(F)cc1)CO3 — lower, -2.57%
- CC1C(C#N)=C(SCCn2c(C(C)(C)C)nc3ccccc3c2=O)N=C2CC(C)(C)CC(O)=C21 (stereo not shown) — higher, 4.16%
- Cn1cc(/C=C(\NC(=O)c2ccco2)C(=O)NCCN2CCOCC2)c2ccccc21 — lower, -5.36%
- CC1=C(C#N)C(c2cccc(F)c2)C2=C(O)CCCC2=N1 (stereo not shown) — lower, -3.09%
- c1csc(Cc2nc(-c3ccc(-n4cccc4)cc3)no2)c1 — higher, 0.0628%
- CCN1C(=O)/C(=C/c2ccc(N3CCOCC3)c(F)c2)S/C1=N/c1ccc(N2CCOCC2)cc1 — lower, -2.28%
- C=CCN1C(=O)C(CC(=O)Nc2ccc(C)cc2)S/C1=N\c1nccs1 (stereo not shown) — higher, 6.03%
- CCc1ccc(CNC(=O)C2c3ccccc3C(=O)N(C)C2c2cn(C)c3ccccc23)cc1 (stereo not shown) — lower, -5.88%
- CCC(C)NC(=O)c1ccccc1NC(=O)c1ccc(CN2CCOCC2)cc1 (stereo not shown) — lower, -8.4%
- OCCNc1ncnc2ccccc12 — lower, -6.86%
- Cc1nn(Cc2ccc(Cl)cc2)c(C)c1NC(=O)c1ccc(F)cc1 — higher, 0.993%
- CC(NC(=O)Cn1ncn2cccc2c1=O)c1ccc2c(c1)OCCO2 (stereo not shown) — higher, -0.698%
- O=C1N/C(=C/c2ccsc2)C(=O)N1c1ccccc1 — higher, 0.161%
- O/C(=C\C=N\c1ccc(O)cc1)c1ccc(Cl)cc1 — higher, 7.69%
- COc1cccc(CNCc2cccnc2)c1OCc1ccc(Cl)cc1 — lower, -6.62%
- Cc1cccc2c(O)c(NC(=O)NCc3cccnc3)cnc12 — higher, 3.66%
- Cc1c2cnn(CC(=O)N3CCCCC3)c(=O)c2c(C)n1Cc1ccccc1F — lower, -5.81%
- CCC(C(=O)N1CCCN(C(=O)C(CC)c2ccccc2)CC1)c1ccccc1 (stereo not shown) — lower, -8.61%
- Clc1cccc(N2CCN(Cc3ccsc3)CC2)c1 — lower, -2.08%
- Cc1cccc(NC(=O)CSc2c3c(nc4ccccc24)CCCC3)n1 — lower, -5.34%
- O=[N+]([O-])c1ccc(N2CCN(Cc3ccc(F)c(Br)c3)CC2)cc1 — lower, -3.65%
- C=Cn1ccnc1C(O)(c1ccccc1)c1nccn1C=C — lower, -4.43%
- Cc1cc(C=C2C(=O)c3ccccc3C2=O)c(C)n1-c1ccc(N(C)C)cc1 — lower, -2.97%
- CCC1CCC(NCCCN2CCOCC2)CC1 (stereo not shown) — lower, -2.21%
- COc1cc2ccccc2cc1C(=O)Nc1nc2ccccc2s1 — higher, 10.6%
- Cc1cc(C)cc(OC(C)C(=O)N(Cc2ccc(C)o2)C2CCS(=O)(=O)C2)c1 (stereo not shown) — lower, -2.85%
- Cc1ccc(C(=O)NCCN2Cc3ccccc3C2=O)cc1 — higher, 2.8%
- COc1ccc(C)cc1N(CC(=O)NCC1CCCO1)S(=O)(=O)c1ccc(C)cc1 (stereo not shown) — lower, -1.04%
- CCN1C(=O)/C(=C\c2ccncc2)S/C1=N\c1ccc(C)c(C)c1 — lower, -3.77%
- COC(=O)NC1c2ccccc2Oc2ccc(C)cc21 (stereo not shown) — higher, 4.74%
- CCOC(=O)N1CCN(c2nc3c(=O)n(C)c(=O)n(C)c3[nH]2)CC1 — lower, -5.38%
- O=C1N=C(Nc2ccc(Br)cc2)S/C1=C\c1ccc(O)cc1 — higher, 3.17%
- c1ccc(CSc2nc3ccncc3[nH]2)cc1 — lower, -4.15%
- COc1ccccc1C(=O)NC1(C(F)(F)F)C(=O)Nc2c1c(=O)[nH]c(=O)n2Cc1ccccc1 (stereo not shown) — lower, -1.72%
- CC1CCN(CC(=O)c2ccc3cc[nH]c3c2)CC1 — lower, -1.08%
- CC(C)CS(=O)(=O)c1cccs1 — lower, -1.59%
- O=C(Nc1cnn(Cc2ccc(Cl)cc2Cl)c1)c1noc2c1CCCC2 — lower, -1.21%
- CCN(Cc1ccccc1)C(=O)Cn1nc(C)n2c(cc3occc32)c1=O — higher, 2.8%
- CCOc1ccc(C2c3c(oc4ccc(F)cc4c3=O)C(=O)N2CCOC)cc1 (stereo not shown) — lower, -1.11%
- CC(=O)N1N=C(c2ccccc2)OC12CCCC2 — higher, 3.79%
- C1CN(CC2OCC3(CO2)COC(CN2CCOCC2)OC3)CCO1 (stereo not shown) — lower, -3.92%

With `CC(=O)Nc1ccc(S(=O)(=O)N2CCN(c3ccc(Cl)cc3)CC2)cc1` the “% Inhibition @ 10 uM” value was -4.76% and 5.15%.
